Measurements reported in PubChem BioAssay (Tox21).
Values joined by “and” are separate entries in the source; they are usually repeats but may differ in a detail not shown here. Equal values may be shown once. The shares of active, inactive and inconclusive entries below differ from those in the screen. A potency beside an inconclusive call is a rough fit, not a confirmed value. Where a structure was tested more than once in an assay, its records may differ in their call. Active and inactive are the calls of the source. Unless noted, the call rests on the fitted dose curve; in most records, active means well fitted inhibition curve with a large enough effect in the signal ratio in the repeat runs; inconclusive means weak or mixed curves, or effect the other way; inactive means flat fitted curve, though single readings scatter; the % refers to the signal ratio.
On the % scale 0 is the no-effect control and ±100 the full control effect; potency means the concentration at half of the fitted maximal effect; tags describe the fitted curve by direction and shape or compound fluorescence and quenching.

Assay: qHTS assay for small molecule disruptors of the mitochondrial membrane potential - cell viability (AID 720634; calls by dose curve; further: nearly all actives have a fitted effect of over 20% in size;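 on activity change, negative = cytotoxicity: human HepG2 liver cancer cells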)
Conditions: HepG2 viability, ATP luminescence (CellTiter-Glo), 1 h; series mostly up to 83.2 µM; activity change, negative = cytotoxicity: at the top concentration
Summary of the method: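 Measuring cytotoxicity alongside mitochondrial potential, the screen quantified ATP by luminescence in HepG2 cells after 1 hr compound incubation and a 30 min room-temperature CellTiter-Glo step.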
In the case of `O=C(Oc1ccccc1)c1ccc2ccccc2c1O`, the Potency is reported as inconclusive: 61.1 µM [cytotoxic, partial curve, poor fit].
With `CCCCC(=O)O[C@]1(C(=O)CO)[C@@H](C)C[C@H]2[C@@H]3CCC4=CC(=O)C=C[C@]4(C)[C@@]3(F)[C@@H](O)C[C@@]21C` the Potency was inconclusive: 30.6 µM [cytotoxic, partial curve].
With `CCCCC(CC)COC(=O)C(C#N)=C(c1ccccc1)c1ccccc1` (stereo not given) the Potency was inconclusive: 6.68 µM [cytotoxic, partial curve, poor fit] and active: 15.4 µM.
In the case of `C#C[C@]1(OC(C)=O)CC[C@H]2[C@@H]3CCC4=C[C@@H](OC(C)=O)CC[C@@H]4[C@H]3CC[C@@]21C`, the Potency is reported as inconclusive: 9.44 µM [cytotoxic, partial curve, poor fit].
In the case of `CCc1cccc2c3c([nH]c12)C(CC)(CC(=O)O)OCC3` (stereo not given), the Potency is reported as “inactive”.
In the case of `COc1cc(NCc2ccc3nc(N)nc(N)c3c2C)cc(OC)c1OC`, the “activity change, negative = cytotoxicity” value is reported as inactive: -12.6%.
In the case of `CCCCCCCCCCC=CC1CC(=O)OC1=O` (stereo not given), the Potency is reported as inconclusive: 68.9 µM [cytotoxic, single point].
With `CCc1ccc2c(c1)C(=O)c1ccccc1C2=O` the Potency was inconclusive: 61.1 µM [cytotoxic, partial curve, poor fit].
For `CC(C)(C)CC(C)(C)c1ccc(OCCO)cc1`, the Potency was inconclusive: 60.8 µM [cytotoxic, partial curve].
In the case of `CCCCCC[C@@H](O)C/C=C\CCCCCCCC(=O)O`, the Potency is reported as inconclusive: 7.5 µM [cytotoxic, partial curve, poor fit].

Assay: qHTS assay for small molecule disruptors of the mitochondrial membrane potential (AID 720635)
Conditions: HepG2 mitochondrial membrane potential, Mito-MPS dye ratio; ratio activity, negative = MMP loss: at 83.2 µM (top of the series) unless noted
Summary of the method: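 HepG2 cells exposed to compound 1 hr at 37C, then Mito-MPS dye 30 min. Ratio read of aggregate (540/590 nm) versus monomer (490/535 nm) fluorescence.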
In the case of `CCCOC(=O)c1ccccc1`, the ratio activity, negative = MMP loss is reported as inconclusive: 13%.
For `Nc1ccc(F)cc1`, the Potency was inconclusive: 1.43 µM [activator, full curve].
With `CC1(C)O[C@@H]2C[C@H]3[C@@H]4C[C@H](F)C5=CC(=O)CC[C@]5(C)[C@H]4[C@@H](O)C[C@]3(C)[C@]2(C(=O)CO)O1` the Potency was inconclusive: 10.1 µM [activator, partial curve, poor fit] and inactive.
In the case of `COc1cc(/C=C/c2ccccc2)oc(=O)c1`, the Potency is reported as active: 71 µM.
For `Cc1ncc(CSSCc2cnc(C)c(O)c2CO)c(CO)c1O`, the ratio activity, negative = MMP loss was inconclusive: 14.5%.
For `O=C(Oc1ccccc1)c1ccc2ccccc2c1O`, the Potency was inconclusive: 54.5 µM [fluorescent, partial curve].
In the case of `CCCCC(=O)O[C@]1(C(=O)CO)[C@@H](C)C[C@H]2[C@@H]3CCC4=CC(=O)C=C[C@]4(C)[C@@]3(F)[C@@H](O)C[C@@]21C`, the Potency is reported as active: 19.3 µM.
With `CCCCC(CC)COC(=O)C(C#N)=C(c1ccccc1)c1ccccc1` (stereo not given) the Potency was inconclusive: 4.73 µM [activator, full curve] and active: 27.3 µM.
For `CC1(C)O[C@@H]2C[C@H]3[C@@H]4C[C@H](F)C5=CC(=O)C=C[C@]5(C)[C@H]4[C@@H](O)C[C@]3(C)[C@]2(C(=O)CO)O1`, the Potency was inconclusive: 1.27 µM [activator, full curve, poor fit].
With `OCc1ccccc1O` the “ratio activity, negative = MMP loss” value was inactive: 19.8%.
In the case of `OCCN1CCN(CCCN2c3ccccc3C=Cc3ccccc32)CC1`, the Potency is reported as inconclusive: 23.7 µM [activator, partial curve] and inconclusive: 29.8 µM [activator].
In the case of `C#C[C@]1(OC(C)=O)CC[C@H]2[C@@H]3CCC4=C[C@@H](OC(C)=O)CC[C@@H]4[C@H]3CC[C@@]21C`, the Potency is reported as active: 13.3 µM and inconclusive: 7.5 µM [inhibitor].
With `C=C1CC[C@H](O)CC1=C/C=C1\CCC[C@]2(C)[C@@H]([C@H](C)/C=C/[C@H](C)C(C)C)CC[C@@H]12` the Potency was “inactive and active: 60.6 µM and inconclusive: 68.6 µM [inhibitor]”.
In the case of `CCc1cccc2c3c([nH]c12)C(CC)(CC(=O)O)OCC3` (stereo not given), the Potency is reported as inconclusive: 76.7 µM [rising, partial curve, poor fit] and the ratio activity, negative = MMP loss is reported as inconclusive: -14.4%.
In the case of `CCCCCCCCCCCCCCCC(=O)OCC`, the ratio activity, negative = MMP loss is reported as inconclusive: -4.92%.
In the case of `CCO[Si](OCC)(OCC)OCC`, the Potency is reported as inconclusive: 55.5 µM [activator, partial curve].
In the case of `COc1cc(NCc2ccc3nc(N)nc(N)c3c2C)cc(OC)c1OC`, the Potency is reported as inconclusive: 27.8 µM [inhibitor].
For `O=C1CCc2cc(OCCCCc3nnnn3C3CCCCC3)ccc2N1`, the ratio activity, negative = MMP loss was inconclusive: -14.3%.
With `CNS(=O)(=O)CCc1ccc2[nH]cc(C3CCN(C)CC3)c2c1` the Potency was inconclusive: 11.9 µM [inhibitor].
With `CC(C)N(C)C` the ratio activity, negative = MMP loss was inconclusive: 9.73%.
For `O=C1c2ccccc2C(=O)C1c1ccc2ccccc2n1`, the Potency was active: 0.34 µM.
With `c1ccc2c(c1)ccc1ncccc12` the Potency was inconclusive: 21.5 µM [partial curve].
With `CN1CCC(Nc2ncc3ncnc(Nc4ccc(F)c(Cl)c4)c3n2)CC1` the Potency was inconclusive: 21.1 µM [activator, partial curve].
For `Cc1ccc(C(C)(C)C)cc1`, the ratio activity, negative = MMP loss was inconclusive: 7.8% [at 95.3 µM].
With `CCCCC/C=C\C/C=C\CCCCCCCC(=O)OC` the Potency was inconclusive: 3.81 µM [activator, full curve, poor fit] and the ratio activity, negative = MMP loss was inconclusive: -27.1%.
In the case of `COc1ccc2nc(N)sc2c1`, the Potency is reported as “inactive”.
In the case of `CC(C)(C)CC(C)(C)c1ccc(OCCO)cc1`, the Potency is reported as inconclusive: 4.22 µM [inhibitor, partial curve] and active: 60.8 µM.
For `COc1cc(OC)c2ccc(=O)oc2c1`, the Potency was inconclusive: 68.6 µM [activator].
